Results: the supplement of paper PMC11417369
± gives the standard deviation of the averaged measurements. The list shows a part of the results.

The sequences below were run on PfAP2-I AP2 domain 3 (GST-tagged) (assay: gcPBM binding intensity (ln(normalized median fluorescence intensity)); higher = stronger DNA binding).
How it was run: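 In this array assay, P. falciparum DNA-binding domains with a GST tag, expressed in E. coli, were applied for 1 h to primer-extended double-stranded 36-bp intergenic genomic probes and negative controls on an Agilent 4 × 180k array. Bound protein was visualised with Alexa488 anti-GST antibody at 488 nm. Binding intensity is the highest Masliner-normalised natural-log median intensity across replicate spots of either probe orientation.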

Sequence	gcPBM binding intensity (ln)
GATATAGGGCGTATGTTAATCGTGAAAGAGTGTCTT [GTGCAC_negctrl_site102]	8.13 ± 0.69
TTCAAATGATTTATGTGTACATAAAATTATTTTTTA [XGTACX_site107]	7.47 ± 0.16
ATAAAGAATATAAATACACACTTAAATATAGATTAT [CACACA_site7804]	7.6 ± 0.45
ATTGGTTCCCCTCTCTTTTCAATATATTTTTTTTTT [XGTACX_negctrl_site259]	7.82 ± 0.47
TAATGAAGCTTATGCACACGTTCATTATTTATATTA [CACACA_site3219]	9.6 ± 0.45
AAAAAATTAAAAATCACACATAAATATATATAAAAA [CACACA_site4192]	7.53 ± 0.67
ATATTACAGTACAATACATGCATATGGAAAAAAAAA [TGCATGCA_site72]	8.02 ± 0.44
TGTAGAACTCAATATTGTACATTATATAAAATGGGA [XGTACX_site3857]	7.83 ± 0.54
TTTAAATATATATATTGTACAAAAAAAAATAATAAA [XGTACX_site4759]	7.93 ± 0.53
ATAAAATTTATGACTTGTACATGTAAATAAAATATA [XGTACX_site762]	7.84 ± 0.28
TTTTTTTGCATTTCATGTACATATATTGAGCTTAAA [XGTACX_site8485]	8.24 ± 0.71
ATATATATATATTGTACACACATTTATGCATATATA [CACACA_site5738]	9.28 ± 0.16
GCCTTTTAGTATTTCACACACGTAAATGAGTATATC [CACACA_site4748]	8.13 ± 0.56
CTTCTTGTAAAATTTGCATGTAATTAAAAGAGAATG [TGCATGCA_site484]	7.88 ± 0.67
TTCCCTATCTTTTCAGTGCATTTTGTTTCCTACCTT [GTGCAC_site9813]	9.77 ± 0.47
AAGATAAATTATTATAAATCAATTGTGCCAACAATA [CACACA_negctrl_site144]	7.99 ± 0.39
TTTTTTTTGTGTTCAAGTACAAAATTTTAAAGGTCA [XGTACX_site4011]	7.74 ± 0.28
TATATATATATATAAGCACACAAACAAAAAAAATTA [CACACA_site9293]	9.36 ± 0.18
GGTTATTTCACAGAATGTACTTATTATATATAAAAT [XGTACX_site8886]	7.89 ± 0.4
TATAAAAATATTTCTACACACATTAAAATATATATA [CACACA_site4770]	7.67 ± 0.59
CATTTGCCCAGGCACACACACATAAAAAGAAAAATA [CACACA_site356]	7.89 ± 0.47
AATGAAAGGATGCTGTGTACATATATATATATATAT [XGTACX_site7901]	9.49 ± 0.35
TGGTCTTTTAAACAAAAATATAAATTTTTAAATATG [CACACA_negctrl_site392]	7.47 ± 0.45

Sequence	gcPBM binding intensity (ln)
AATTTAATATAATGCACACATAAAAAAAAAAAATTC [CACACA_site1504]	11 ± 0.61
AGCTTGTGGATGCAGGTGCTACATTTGTTCTATAAT [GTGCAC_site9645]	8.86 ± 0.38
AAGAAAATTGTCTGAAGTACAAAACATTAATAATAT [XGTACX_site4864]	7.77 ± 0.62
CATATTATTATTTTGGTGCATACTTATATATATTTT	9.53 ± 0.085
GTACCTATTTCATACACACACACACCCAAACAAACA [CACACA_site976]	8.57 ± 0.35
GAAACAATTTGATATTGTACATAAATAAATAAAAAC [XGTACX_site8869]	8.27 ± 0.49
AACATTGATAAATATAAACACACGAAAACAGACATA [CACACA_site490]	8.05 ± 0.64
TAATTTTTTTTAATAACACACATATAAATATAAATA [CACACA_site6521]	7.66 ± 0.42
CATTTGCACCCGCACACACACATAAAAAGAAAAATA [CACACA_site4350]	10.7 ± 0.8
CTTGTACCTAGAAATACACACAATTCTATAACTTAT [CACACA_site7355]	7.86 ± 0.31
AATGTGTAGACACGCACACACAAAAAAATATATATA [CACACA_site5595]	8.12 ± 0.79
AATGTAGAAATGGGTGCACACACATATATAATATAT [CACACA_site8799]	10.3 ± 0.26
GTTTTATTTTCAATGTGTACTTATTATTTGATATAC [XGTACX_site6402]	8.21 ± 0.4
GATCCATTATTGATCCGTACTTATTCATGTTATATA [XGTACX_site5946]	7.83 ± 0.54
TGTTATAAGATTTATGTACACACATATACACCCCTC [CACACA_site8141]	8.545 ± 0.078
TATATATATATATGTATGCACTTTAATTTTATAAGG	9.85 ± 0.26
TATATATGTATATATACACACAACGGTTATAAATAT [CACACA_site1128]	7.96 ± 0.6
AATATAAATAAAAACACACACACACCGATATATATA [CACACA_site5283]	8.26 ± 0.86
AAGATTAGGTTAATTAGTACTTATTATATTGTAATG [XGTACX_site3653]	7.49 ± 0.37
CATACATTTAAAAAGTGTACGTATATGAAAAAAGGA [XGTACX_site6512]	8.05 ± 0.57
ACCTTTGTAGTTGGTCCACACACATATATGGAAGAA [CACACA_site8351]	8.29 ± 0.33
ACATATATATAATATATATATCATCATATTTTCTTA [CACACA_negctrl_site853]	7.56 ± 0.61
TGTGTGTGTATATGTGTGCACATATAAAATAGAAGA [GTGCAC_site9714]	10.23 ± 0.021

Sequence	gcPBM binding intensity (ln)
ATATGTGTTATTTATACATGCAGAAGAATATCTATT [TGCATGCA_site828]	7.93 ± 0.62
CTCAATATTATTACTACACACAAATTAAAATTTTCC [CACACA_site4203]	7.92 ± 0.47
AGAGAATAAATATAAAGTACATATATAAATATATAT [XGTACX_site5055]	7.71 ± 0.47
GTATATAAAAATTCATGTACATATTATTATTTTTAA [XGTACX_site658]	8.07 ± 0.42
ATGTTATAAATCTTAATATATATATGCAAAAGAGAA [XGTACX_negctrl_site521]	8.75 ± 0.75
ACATATACAAAACACACACACAACGTTTTAATAAAT [CACACA_site1979]	8.17 ± 0.35
TTATAACTTTTGAGCACACACAAGCATATAAATATA [CACACA_site6933]	8.24 ± 0.18
TTGTACATCTTTTGCACACGTAATGTTATTATAATA [CACACA_site1258]	9.45 ± 0.014
AAATACTGTAAAAAAGCATGCCACTAATAATAATTA [TGCATGCA_site759]	7.62 ± 0.67
TCATTTTTTTGTTTGGTGCGACTTGAAAATTTGATT	8.43 ± 0.42
ATATAGATTCGACACACACACAAAAAAAAAAAAAAA [CACACA_site7677]	8.03 ± 0.37
GTACCTATTTCATACACACACACACGCAAACAAACA [CACACA_site6590]	8.6 ± 0.43
TGGTATATTATTTTTTGTACACATAAATGAAACATT [XGTACX_site5345]	8.04 ± 0.22
CGTATATCACCAACTAGTACATATAAATAAATAAAT [XGTACX_site8837]	7.92 ± 0.5
ATATATATAATAAACACACACATATACATAGATGTA [CACACA_site5841]	8.28 ± 0.52
ATATATATATATATATGTACATATTATTATTTTGAT [XGTACX_site4752]	9.22 ± 0.49
GTATATGTACTATACGCACACACACCCACATATATA [CACACA_site9062]	8.57 ± 0.38
ATATATATTATATGCACACTAATAAGACTATTTAAA [CACACA_site3554]	9.63 ± 0.22
TTATAATATTCATAAGGTACAGTTTATATATGTTAT [XGTACX_site8442]	7.76 ± 0.49
TTGAGTTGTATAAAAAGTACAAGGTTTTAACTAAAT [XGTACX_site1447]	7.93 ± 0.54
AATAATCATGATCAAAGTACGTATGATTAAAAAAAA [XGTACX_site4916]	7.78 ± 0.71
TATGACCTTAGTAATTGTACACAAACATATTAATAT [XGTACX_site3340]	7.84 ± 0.5
GAGTATATGATATATATATATATATAAAAAAAAAAA [GTGCAC_negctrl_site99]	7.92 ± 0.58

Sequence	gcPBM binding intensity (ln)
TATATGTAAATGGACACACACATATATATATATATA [CACACA_site3659]	9.33 ± 0.47
AAAAGTAAAAAAAAAAAAAGTAAAAAAAAAAAAAAA [CACACA_negctrl_site389]	7.99 ± 0.97
TTACAGATATTTATCTGTACATATATTTAAAAATAT [XGTACX_site7431]	7.59 ± 0.34
TAATTTTTTTAAAAGCGTACATTTAAAAAAAAATAT [XGTACX_site2736]	7.89 ± 0.12
TTTTTAAATTCTTTAATATGTTTTATATATCAAAAT [CACACA_negctrl_site75]	7.45 ± 0.36
TCTTATCATTTTAAATCACACACATATATATATATA [CACACA_site8925]	9.32 ± 0.44
TTATTTTATTTAGGGTGTACCCAATTTTTCCATATG [XGTACX_site4957]	7.74 ± 0.43
AAAAATTTTTTACATCGTACAGATATATATAATAAA [XGTACX_site3331]	8.09 ± 0.46
ATTTATATTTATAAATGTACACATATATATTTCATT [XGTACX_site2723]	7.79 ± 0.45
TCCTATAATTTTTTAATCAAAATATTTTATCCTTTG [CACACA_negctrl_site793]	7.58 ± 0.73
TGTACATATATATATATATATGTTACTGAAATAAAA [CACACA_negctrl_site1658]	8.12 ± 0.23
AAGAATAACTTTTATACATGCAGCATAATATATTGT [TGCATGCA_site605]	8.01 ± 0.7
CTTTTATAATTCATATGTACTTATTTTTAACATAGG [XGTACX_site7808]	7.96 ± 0.4
TCTTTTAACACATGTGATATTATTTAATAACAATAA [CACACA_negctrl_site339]	7.74 ± 0.49
GGTATACACAAGTATACACACATATAAATATAAATA [CACACA_site7511]	7.53 ± 0.56
AATAACCACAGACACACACACATATAAATATAAATA [CACACA_site7631]	8.03 ± 0.33
GTGATTAATATATACACACATACATATATATATATA [CACACA_site2817]	9.1 ± 0.2
ATATATATGTATACATGTACATATTTTATTATGTGC [XGTACX_site7207]	7.9 ± 0.61
GATAAAACGTTATGCACACGTACGTGAGTATTTATA [CACACA_site1570]	10.1 ± 0.3
AACAAAACTTTGGATACATGCAAAATTTTTAAATGA [TGCATGCA_site249]	7.5 ± 0.86
